Numbering of substitutions follows the chain as printed. Names and notes keep the numbering of the source. These are yes or no findings as the source states them, for the method shown. Some results given as binding are weak or reduced against the parent protein; the word gives no strength. Sequences can lack the tags named with a protein.

The chains behind the UniProt entries cited, without tags or fusion partners.
UniProt Q9SXZ2: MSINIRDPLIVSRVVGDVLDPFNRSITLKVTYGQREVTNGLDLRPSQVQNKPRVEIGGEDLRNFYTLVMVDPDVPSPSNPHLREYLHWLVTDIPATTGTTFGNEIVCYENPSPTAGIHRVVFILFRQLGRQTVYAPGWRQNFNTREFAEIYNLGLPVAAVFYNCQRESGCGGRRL

Holding throughout (experiment): two-hybrid; yeast two-hybrid, GAL4 AD and BD fusions; growth on selective (SCD -Leu, -Trp, -His) against non-selective (SCD -Leu, -Trp) medium
Experiment [1] has as its target FLOWERING LOCUS T (FT) (yeast two-hybrid fusion) (Arabidopsis), Q9SXZ2. The note with it: remark: other sources report otherwise.
Experiment [2] addresses FLOWERING LOCUS T (FT) (yeast two-hybrid fusion) (Arabidopsis) (UniProt Q9SXZ2).
For experiment [3], the target named is T1, GRF3 (14-3-3 psi) (yeast two-hybrid fusion) (Arabidopsis) (UniProt P42644).
T1 sequence: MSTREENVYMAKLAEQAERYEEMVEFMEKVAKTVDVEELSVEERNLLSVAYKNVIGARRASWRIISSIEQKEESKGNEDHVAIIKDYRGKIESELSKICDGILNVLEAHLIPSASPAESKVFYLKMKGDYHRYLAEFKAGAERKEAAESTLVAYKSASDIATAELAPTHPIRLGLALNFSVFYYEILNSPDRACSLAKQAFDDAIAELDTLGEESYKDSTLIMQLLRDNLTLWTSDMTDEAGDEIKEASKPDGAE

In experiment [4] the target is T2, GRF4 (14-3-3 phi) (yeast two-hybrid fusion) (Arabidopsis) (UniProt P46077).
T2 sequence: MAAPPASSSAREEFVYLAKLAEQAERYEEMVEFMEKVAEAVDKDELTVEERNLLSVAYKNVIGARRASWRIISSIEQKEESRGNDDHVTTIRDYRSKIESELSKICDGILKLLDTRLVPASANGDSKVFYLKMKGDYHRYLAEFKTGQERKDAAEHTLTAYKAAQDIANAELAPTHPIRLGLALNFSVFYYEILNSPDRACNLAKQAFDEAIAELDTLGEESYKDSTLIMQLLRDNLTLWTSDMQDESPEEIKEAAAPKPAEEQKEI

B1: FD, wild type (yeast two-hybrid fusion), Q84JK2 1-285 (protein)
chain: MLSSAKHQRNHRLSATNKNQTLTKVSSISSSSPSSSSSSSSTSSSSPLPSQDSQAQKRSLVTMEEVWNDINLASIHHLNRHSPHPQHNHEPRFRGQNHHNQNPNSIFQDFLKGSLNQEPAPTSQTTGSAPNGDSTTVTVLYSSPFPPPATVLSLNSGAGFEFLDNQDPLVTSNSNLHTHHHLSNAHAFNTSFEALVPSSSFGKKRGQDSNEGSGNRRHKRMIKNRESAARSRARKQAYTNELELEVAHLQAENARLKRQQDQLKMAAAIQQPKKNTLQRSSTAPF
On to B1, for which the binding result in experiment [1] was “binds”.

B2: phospho-mimic T282E mFD (yeast two-hybrid fusion) (protein, UniProt Q84JK2 1-285)
chain: B1 chain with T282E
For the molecule B2, the binding result in experiment [2] is “binds”.

B3: LQTE mFD (L277Q T282E) (yeast two-hybrid fusion) (protein, UniProt Q84JK2 1-285)
chain: B1 chain with L277Q, T282E
As for B3, the binding entry in experiment [3], in experiment [2] and in experiment [4] was “binds” throughout.

B4: L277Q mFD (yeast two-hybrid fusion) (protein, UniProt Q84JK2 1-285)
chain: B1 chain with L277Q
As for B4, the binding entry in experiment [3], in experiment [2] and in experiment [4] was “no binding” throughout.

B5: non-phosphorylatable T282A mFD (yeast two-hybrid fusion), Q84JK2 1-285 (protein)
chain: B1 chain with T282A
In the case of B5, in experiment [1], the binding result is recorded as “no binding”.

B6: FD, wild type (yeast two-hybrid fusion) (protein, UniProt Q84JK2 1-285)
chain: B1 chain
B6: the binding result in experiment [3] and in experiment [4] was “binds” throughout.

For the origin of these results see publication PMC4321167.
